Data taken from the supplement of paper PMC4604168 (melanoma cell lines).
Some of the results follow. Many values rest on one well or one pass, so single values are uncertain.

Legend:
Assay in all cases: cell count relative to DMSO control; melanoma cells; higher = more viable cells
Conditions in all cases: library dose: standard library concentration; 72 h
[1] = tested on: G361
[2] = tested on: IPC-298
[3] = tested on: IST-MEL1
[4] = tested on: LB2518-MEL
[5] = tested on: LOXIMVI
[6] = tested on: MEL-HO
[7] = tested on: MZ2-MEL
[8] = tested on: MeWo
[9] = tested on: RPMI7951
[10] = tested on: RVH-421
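Also: cells treated in 1,536-well plates, then fixed and DAPI-stained, with nuclei counted from automated high-throughput microscope images.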

| Structure (SMILES) | cell count [1] [%] | cell count [2] [%] | cell count [3] [%] | cell count [4] [%] | cell count [5] [%] | cell count [6] [%] | cell count [7] [%] | cell count [8] [%] | cell count [9] [%] | cell count [10] [%] |
| --- | --- | --- | --- | --- | --- | --- | --- | --- | --- | --- |
| CN(c1ncccc1CNc1nc(Nc2ccc3c(c2)CC(=O)N3)ncc1C(F)(F)F)S(C)(=O)=O + COc1cc2ncnc(Nc3ccc(Oc4ccccc4)cc3)c2cc1OC [SrcI1] (first compound 0.4 µM, partner dose 10 µM) | 69 | 83.6 | 80 | 97.2 | 59 | 82.2 | 50.6 | 79.8 | 41 | 101 |
| CS(=O)(=O)c1ccc(C(=O)Nc2ccc(Cl)c(-c3ccccn3)c2)c(Cl)c1 [vismodegib] + COc1ccc2c(c1)CCC1C2CCC2(C)C(NCCCCCCN3C(=O)C=CC3=O)CCC12 [U73122] (first compound 5 µM, partner dose 2 µM) | 87.5 | 105 | 89.9 | 85.1 | 76.7 | 101 | 97.5 | 62.9 | 35.8 | 66.5 |
| CN(c1ncccc1CNc1nc(Nc2ccc3c(c2)CC(=O)N3)ncc1C(F)(F)F)S(C)(=O)=O + Clc1ccc(Nc2nnc(Cc3ccncc3)c3ccccc23)cc1 [vatalanib] (first compound 0.4 µM, partner dose 10 µM) | 49.4 | 55.1 | 65.8 | 50.2 | 81.9 | 60.7 | 41.1 | 65.9 | 52.4 | 78.4 |
| CS(=O)(=O)c1ccc(C(=O)Nc2ccc(Cl)c(-c3ccccn3)c2)c(Cl)c1 [vismodegib] + CCCCCCCCCCCC1=C(O)C(=O)C=C(O)C1=O [Embelin] (first compound 5 µM, partner dose 6 µM) | 86.5 | 87 | 64.1 | 105 | 108 | 78.8 | 99.7 | 120 | 95.7 | 66.2 |
| CN(c1ncccc1CNc1nc(Nc2ccc3c(c2)CC(=O)N3)ncc1C(F)(F)F)S(C)(=O)=O + COc1cc(N2CCC(N3CCN(C)CC3)CC2)ccc1Nc1ncc(Cl)c(Nc2ccccc2S(=O)(=O)C(C)C)n1 [NVP-TAE684] (first compound 0.4 µM, partner dose 0.4 µM) | 72.4 | 92.1 | 106 | 97.7 | 58.6 | 93.5 | 88.7 | 71.2 | 68.9 | 98.5 |
| CS(=O)(=O)c1ccc(C(=O)Nc2ccc(Cl)c(-c3ccccn3)c2)c(Cl)c1 [vismodegib] + COc1cc2c(Oc3ccc4[nH]c(C)cc4c3F)ncnc2cc1OCCCN1CCCC1 [cediranib] (first compound 5 µM, partner dose 2 µM) | 99.8 | 110 | 119 | 120 | 61.9 | 96.8 | 116 | 79.7 | 112 | 116 |
| CN(c1ncccc1CNc1nc(Nc2ccc3c(c2)CC(=O)N3)ncc1C(F)(F)F)S(C)(=O)=O + C[C@@H]1CCN(C(=O)CC#N)C[C@@H]1N(C)c1ncnc2[nH]ccc12 [CP690550] (first compound 0.4 µM, partner dose 5 µM) | 107 | 128 | 86.1 | 88 | 86.3 | 108 | 110 | 116 | 67.4 | 75.9 |
| NC1(c2ccc(-c3nc4ccn5c(=O)[nH]nc5c4cc3-c3ccccc3)cc2)CCC1 + NC(=O)Nc1cc(-c2cccc(F)c2)sc1C(=O)N[C@H]1CCCNC1 [AZD7762] (first compound 2 µM, partner dose 0.1 µM) | 69.4 | 84.3 | 373 | 63.4 | 63 | 65.9 | 102 | 76.3 | 48 | 483 |
| C=C(c1ccc(C(=O)O)cc1)c1cc2c(cc1C)C(C)(C)CCC2(C)C [Bexarotene] + O=S(=O)(c1ccccc1)N(CC(F)(F)F)c1ccc(C(O)(C(F)(F)F)C(F)(F)F)cc1 [T0901317] (first compound 10 µM, partner dose 7 µM) | 62.3 | 63.1 | 76.6 | 96.3 | 95.2 | 67.9 | 102 | 76.2 | 72.3 | 68.8 |
| CN(c1ncccc1CNc1nc(Nc2ccc3c(c2)CC(=O)N3)ncc1C(F)(F)F)S(C)(=O)=O + Cn1c(=O)n(-c2ccc(C(C)(C)C#N)cc2)c2c3cc(-c4cnc5ccccc5c4)ccc3ncc21 [NVP-BEZ235] (first compound 0.4 µM, partner dose 0.02 µM) | 52.5 | 75.7 | 81.2 | 72.7 | 58.6 | 68.8 | 65.1 | 54.5 | 34.7 | 67.2 |
| CCCS(=O)(=O)Nc1ccc(F)c(C(=O)c2c[nH]c3ncc(Cl)cc23)c1F + C=CCn1c(=O)c2cnc(Nc3ccc(N4CCN(C)CC4)cc3)nc2n1-c1cccc(C(C)(C)O)n1 [MK1775] (first compound 0.4 µM, partner dose 0.1 µM) | 48.5 | 51 | 73.8 | 65.4 | 92.7 | 73.9 | 80.5 | 68.5 | 56.4 | 73.1 |
| CS(=O)(=O)c1ccc(C(=O)Nc2ccc(Cl)c(-c3ccccn3)c2)c(Cl)c1 [vismodegib] + Cc1cc(Nc2cc(N3CCN(C)CC3)nc(/C=C/c3ccccc3)n2)n[nH]1 [ENMD2076] (first compound 5 µM, partner dose 0.2 µM) | 90.5 | 89 | 103 | 81.8 | 93.3 | 98.2 | 102 | 74.7 | 67 | 84.5 |
| CS(=O)(=O)c1ccc(C(=O)Nc2ccc(Cl)c(-c3ccccn3)c2)c(Cl)c1 [vismodegib] + NC(=O)Nc1cc(-c2cccc(F)c2)sc1C(=O)N[C@H]1CCCNC1 [AZD7762] (first compound 5 µM, partner dose 0.1 µM) | 91.1 | 102 | 153 | 80.9 | 82.7 | 88.7 | 113 | 71.9 | 40.7 | 165 |
| CS(=O)(=O)c1ccc(C(=O)Nc2ccc(Cl)c(-c3ccccn3)c2)c(Cl)c1 [vismodegib] + CO[C@H]1C[C@@H]2CC[C@@H](C)[C@@](O)(O2)C(=O)C(=O)N2CCCC[C@H]2C(=O)O[C@H]([C@H](C)C[C@@H]2CC[C@@H](OCCO)[C@H](OC)C2)CC(=O)[C@H](C)/C=C(\C)[C@@H](O)[C@@H](OC)C(=O)[C@H](C)C[C@H](C)/C=C/C=C/C=C/1C [everolimus] (first compound 5 µM, partner dose 0.1 µM) | 66.3 | 64.8 | 87.5 | 61.5 | 72.7 | 60.7 | 71.4 | 75.9 | 55.7 | 188 |
| CS(=O)(=O)c1ccc(C(=O)Nc2ccc(Cl)c(-c3ccccn3)c2)c(Cl)c1 [vismodegib] + C=CCn1c(=O)c2cnc(Nc3ccc(N4CCN(C)CC4)cc3)nc2n1-c1cccc(C(C)(C)O)n1 [MK1775] (first compound 5 µM, partner dose 0.1 µM) | 64.8 | 84.2 | 87 | 54.9 | 85.5 | 98.2 | 102 | 72.5 | 55.2 | 95.1 |
| C=C(c1ccc(C(=O)O)cc1)c1cc2c(cc1C)C(C)(C)CCC2(C)C [Bexarotene] + C[C@]1(c2nc3c(C(N)=O)cccc3[nH]2)CCCN1 [Veliparib] (first compound 10 µM, partner dose 7 µM) | 67.2 | 78.9 | 100 | 88.4 | 94.9 | 82.8 | 88.1 | 79 | 82.9 | 90.9 |
| CCCS(=O)(=O)Nc1ccc(F)c(C(=O)c2c[nH]c3ncc(Cl)cc23)c1F + C[C@]1(c2nc3c(C(N)=O)cccc3[nH]2)CCCN1 [Veliparib] (first compound 0.4 µM, partner dose 7 µM) | 56.5 | 74.1 | 90.7 | 85.8 | 67.4 | 78.6 | 71 | 96.3 | 98.2 | 78.2 |
| NC1(c2ccc(-c3nc4ccn5c(=O)[nH]nc5c4cc3-c3ccccc3)cc2)CCC1 + C[C@]1(c2nc3c(C(N)=O)cccc3[nH]2)CCCN1 [Veliparib] (first compound 2 µM, partner dose 7 µM) | 92.5 | 91.3 | 85.8 | 74.5 | 73.5 | 76.4 | 95.4 | 77.8 | 75.7 | 67.7 |
| NC1(c2ccc(-c3nc4ccn5c(=O)[nH]nc5c4cc3-c3ccccc3)cc2)CCC1 + O=C1NC(=O)/C(=C/c2ccc(-c3ccc(F)cc3O)o2)S1 [AS252424] (first compound 2 µM, partner dose 5 µM) | 67.4 | 88.2 | 78.9 | 65.8 | 87.1 | 56.9 | 89.1 | 65 | 95.9 | 71.5 |
| CCCS(=O)(=O)Nc1ccc(F)c(C(=O)c2c[nH]c3ncc(Cl)cc23)c1F + Cn1cncc1[C@@](N)(c1ccc(Cl)cc1)c1ccc2c(c1)c(-c1cccc(Cl)c1)cc(=O)n2C [tipifarnib] (first compound 0.4 µM, partner dose 0.05 µM) | 54.8 | 98.4 | 76.2 | 79.4 | 73.5 | 76.2 | 106 | 83.4 | 83.5 | 66 |
| CCCS(=O)(=O)Nc1ccc(F)c(C(=O)c2c[nH]c3ncc(Cl)cc23)c1F + Oc1cc(-c2nc(-c3ccccc3)[nH]c2-c2ccncc2)ccc1Cl [L779450] (first compound 0.4 µM, partner dose 1 µM) | 59.4 | 78.2 | 89.8 | 91.1 | 130 | 93.7 | 87.4 | 74 | 94.3 | 69 |
| CS(=O)(=O)c1ccc(C(=O)Nc2ccc(Cl)c(-c3ccccn3)c2)c(Cl)c1 [vismodegib] + CCCCCCCCc1ccc(CCC(N)(CO)CO)cc1 [fingolimod] (first compound 5 µM, partner dose 10 µM) | 0.673 | 5.02 | 4.17 | 0.223 | 16 | 1.01 | 0.711 | 6.26 | 1.38 | 4.83 |
| CN(c1ncccc1CNc1nc(Nc2ccc3c(c2)CC(=O)N3)ncc1C(F)(F)F)S(C)(=O)=O + C[C@]1(c2nc3c(C(N)=O)cccc3[nH]2)CCCN1 [Veliparib] (first compound 0.4 µM, partner dose 7 µM) | 89.3 | 86.7 | 91.1 | 66.6 | 68.1 | 84.5 | 70.5 | 90.6 | 67.7 | 81.4 |
